According to publication PMC4336329 (PLoS ONE, 2015):
The whole screen tested about 310,000 compounds, of which about 2,200 (0.71%) showed an effect of 50% or more. The effect is printed as a negative number. Some of the results follow.

The molecules below were run against human ether-à-go-go-related gene (hERG) potassium channel (human, UniProt Q12809) (assay: primary screen, population patch clamp on CHO cells stably expressing hERG).
human ether-à-go-go-related gene (hERG) potassium channel, sequence (Q12809 whole entry, looked up): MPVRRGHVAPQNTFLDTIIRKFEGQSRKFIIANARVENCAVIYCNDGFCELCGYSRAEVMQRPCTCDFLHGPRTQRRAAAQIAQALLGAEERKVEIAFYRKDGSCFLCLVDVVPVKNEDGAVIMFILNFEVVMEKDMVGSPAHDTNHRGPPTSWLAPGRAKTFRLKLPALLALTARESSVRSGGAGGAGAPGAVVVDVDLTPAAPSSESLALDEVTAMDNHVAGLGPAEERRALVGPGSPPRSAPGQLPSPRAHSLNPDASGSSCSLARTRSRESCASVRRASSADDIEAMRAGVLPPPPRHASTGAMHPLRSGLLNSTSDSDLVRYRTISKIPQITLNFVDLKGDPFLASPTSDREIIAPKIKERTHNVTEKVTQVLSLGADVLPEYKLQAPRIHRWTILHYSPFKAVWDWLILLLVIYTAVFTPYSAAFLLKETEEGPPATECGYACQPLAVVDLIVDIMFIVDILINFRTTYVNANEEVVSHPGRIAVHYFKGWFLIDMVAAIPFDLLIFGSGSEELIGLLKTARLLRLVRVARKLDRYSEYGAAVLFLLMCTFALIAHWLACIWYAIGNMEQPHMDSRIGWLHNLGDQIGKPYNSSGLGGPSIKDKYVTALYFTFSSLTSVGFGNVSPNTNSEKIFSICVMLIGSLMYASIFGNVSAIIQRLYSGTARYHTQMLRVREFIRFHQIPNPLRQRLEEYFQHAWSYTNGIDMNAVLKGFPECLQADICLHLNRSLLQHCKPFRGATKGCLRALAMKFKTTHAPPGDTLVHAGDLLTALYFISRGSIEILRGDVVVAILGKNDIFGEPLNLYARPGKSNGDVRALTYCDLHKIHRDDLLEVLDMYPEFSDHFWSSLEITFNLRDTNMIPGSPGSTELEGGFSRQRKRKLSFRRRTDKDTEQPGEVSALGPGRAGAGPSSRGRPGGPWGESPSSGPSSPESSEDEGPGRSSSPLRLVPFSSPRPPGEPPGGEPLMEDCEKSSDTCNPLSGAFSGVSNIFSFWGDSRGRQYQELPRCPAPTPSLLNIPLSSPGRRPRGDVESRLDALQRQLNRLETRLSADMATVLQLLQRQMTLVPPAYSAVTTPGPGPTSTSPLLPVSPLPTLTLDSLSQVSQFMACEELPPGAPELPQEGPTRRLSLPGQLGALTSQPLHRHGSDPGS

In order of falling “hERG current change (%, negative = inhibition) at 1uM” value:
1. COc1cccc(CN2CCNC(=O)C2CC(=O)NCCCn2ccnc2)c1 (centres unmarked)  31.2%
2. N#C/C(=C\c1ccc[nH]1)C(=O)c1ccccc1  20.9%
3. O=C(CN1CCOCC1)Nc1nc(-c2ccc3c(c2)CCN3S(=O)(=O)c2ccccc2)cs1  17.9%
4. Cc1cc(C)nc(SCC(=O)c2c(N)n(C)c(=O)n(C)c2=O)n1  17.1%
5. O=C1c2ccccc2C(=O)N1Cc1nc2ccccc2c(=O)n1Cc1ccco1  16.5%
6. CC[C@@H](C)C(NC(=O)OC(C)(C)C)c1cn([C@@H](CCC(=O)OC(C)(C)C)C(=O)N2CCN(C(=O)OC(C)(C)C)CC2)nn1 (some centres unmarked)  16.1%
7. CCCNC(=O)Nc1ccc(C(F)(F)F)cc1  16%
8. Cc1ccc(S(=O)(=O)N2CCCC(N3CCOCC3)C2)cc1Cl (centres unmarked)  15.3%
9. COc1ccc(N2CCN(C3CCCN(C(=O)CN4CCCCC4=O)C3)CC2)cc1 (centres unmarked)  15%
10. COc1cccc(C(O)C2OC(=O)c3ccccc32)c1OC (centres unmarked)  14.7%
11. COc1cccc(CNC(=O)C2CC(=O)N(c3ccc4c(c3)OCCO4)C2)c1 (centres unmarked)  14.5%
12. Cc1ccccc1CNC(=O)c1cc2ccccc2o1  13.9%
13. CNC(=O)c1cccc2nc3ccccc3nc12  13.2%
14. COC(=O)c1ccc(NC(=O)c2ccc3c(c2)C(=O)N(C)C3=O)cc1  13%
15. COc1cc(C2CC(=O)N(c3ccc(C)cc3)C(=O)C2)cc(OC)c1OC  13%
16. CCC(C(=O)NCCc1c[nH]c2cc(OC)ccc12)c1ccccc1 (centres unmarked)  12.6%
17. O=C(COc1ccccc1C(=O)NCc1ccccn1)Nc1ccc(Br)cc1  12.6%
18. COC(=O)C1(CC2CC(c3ccccc3)=NO2)CCN(C(=O)OC(C)(C)C)CC1 (centres unmarked)  12.3%
19. CNC(=S)NNC(=O)c1ccc(N(C)C)cc1  12.1%
20. O=C(NCCc1nc(-c2ccccc2)no1)c1ccco1  11.3%
21. COc1ccc(CC(=O)NC(C)c2nnc(SCCC(=O)Nc3ccccc3)n2C)cc1 (centres unmarked)  11.2%
22. Cc1ccccc1-n1c(Cn2c(=O)sc3ccccc32)nnc1SC(C)C  11.1%
23. CN(c1ccccc1)S(=O)(=O)c1ccc(NC(=O)c2cccs2)cc1  10.8%
24. Cc1ccsc1/C=N/NC(=O)c1cc(-c2ccncc2)nc2ccccc12  10.7%
25. COc1ccc(C2C(C(C)=O)=C(O)C(=O)N2c2ccccn2)cc1 (centres unmarked)  10.2%
26. Cc1cc(C)n(-c2ccc(NC(=O)C3CCN(Cc4ccc(C)o4)CC3)cc2)n1  10%
27. Cc1cc(C(=O)N/N=C/c2ccc(-c3ccc(C)c(Cl)c3)o2)n[nH]1  9.36%
28. COc1ccc(C(=O)CSc2nnn(-c3cccc(NC(C)=O)c3)n2)cc1  9.23%
29. CSc1ccccc1C(=O)Nc1ccc(C)c(C)c1  8.81%
30. N#Cc1cccc(NC(=O)CSc2ccccc2)c1  7.92%
31. CNC(=O)NC(=O)COc1ccc2oc3c(c2c1)CCCC3  7.84%
32. COc1ccc(-n2c(=O)c(CCC(=O)N3CCC(C)CC3)nc3ccccc32)cc1  7.44%
33. O=C(NCCCn1ccnc1)c1ccc(C(F)(F)F)cc1  7.36%
34. Cc1noc(/C=C/c2ccc(-c3ccccc3Cl)o2)c1[N+](=O)[O-]  6.52%
35. Cc1cc2cc(C(c3nnnn3Cc3ccco3)N3CCCCC3)c(=O)[nH]c2cc1C (centres unmarked)  6.29%
36. CCN(CC)CCNC(=O)c1cccc(NC(=O)C(=O)c2ccccc2NC(C)=O)c1  5.64%
37. CC(Cc1ccccc1)NC(=O)Cc1ccc(N(C)C)cc1 (centres unmarked)  5.4%
38. Cc1[nH]c2ccc(C(=O)NCC(C)(C)N3CCOCC3)cc2c1C  4.36%
39. Cn1ncc(Br)c1C(=O)NCc1cccs1  4.27%
40. O=C(/C=C/c1ccccc1Cl)NCCc1ccc(F)cc1  4.26%
41. COc1cc(/C=C2/C(=O)NC(=O)N(c3ccccc3)C2=O)ccc1O  4.18%
42. O=C(C1=NN(c2ccccc2)C2C(=O)N(c3ccc(Cl)cc3)C(=O)C12)c1ccccc1 (centres unmarked)  3.04%
43. COc1cc(/C=C/C(=O)OCC(=O)Nc2ccccc2Sc2ccc(Cl)cc2)ccc1O  2.82%
44. CN(CC(=O)Nc1ccc(Cl)cc1)C(=O)c1cccc(S(=O)(=O)N(C)C)c1  2.8%
45. CCOc1ccccc1N(CC(=O)N1CCOCC1)S(=O)(=O)c1ccccc1  2.31%
46. Cc1ccc(C23CC4CC(CC(C(=O)OCC(=O)NC5CCS(=O)(=O)C5)(C4)C2)C3)cc1 (centres unmarked)  1.74%
47. O=C(N/N=C1\CCCc2ccccc21)c1ccc([N+](=O)[O-])cc1  -2.14%
48. O=C(CCNS(=O)(=O)c1ccc(Br)cc1)N1CCN(c2ccccc2O)CC1  -2.36%
49. O=C(COc1ccccc1)Nc1ccc(-c2ccc(N3CCOCC3)nn2)cc1  -2.8%
50. CCS(=O)(=O)N1CCC(c2nc(-c3ccc(C(F)(F)F)cc3)no2)CC1  -3.65%
51. COc1cccc(Nc2cc(C)nc3nc(C)nn23)c1  -3.83%
52. O=C(CCCn1c(=S)[nH]c2cc3c(cc2c1=O)OCO3)N1CCN(C2CCCCC2)CC1  -6.95%
53. CCOc1ccc(CN2CCC(C(=O)Nc3cccc(-c4ccn[nH]4)c3)CC2)cc1Cl  -8.18%
54. CCOc1ccc(N2CC(C(=O)N3CCc4ccccc43)CC2=O)cc1 (centres unmarked)  -8.82%
55. COc1ccc(-c2nnc(SCC(=O)Nc3cccnc3Cl)n2C)cc1  -25.8%
56. CCc1ccc(-c2nc(CN3CCC(C(=O)NCc4ccco4)CC3)c(C)o2)cc1  -51.1%
